Measurements taken from publication PMC4336329 (PLoS ONE, 2015).
Out of some 310,000 compounds screened, about 2,200 (0.71%) showed an effect of 50% or more. Effects have a minus sign here. The list shows a part of the results.

Molecular target: human ether-à-go-go-related gene (hERG) potassium channel (human, UniProt Q12809)
Assay: primary screen, population patch clamp on CHO cells stably expressing hERG

Sequence of human ether-à-go-go-related gene (hERG) potassium channel (Q12809 whole entry, looked up): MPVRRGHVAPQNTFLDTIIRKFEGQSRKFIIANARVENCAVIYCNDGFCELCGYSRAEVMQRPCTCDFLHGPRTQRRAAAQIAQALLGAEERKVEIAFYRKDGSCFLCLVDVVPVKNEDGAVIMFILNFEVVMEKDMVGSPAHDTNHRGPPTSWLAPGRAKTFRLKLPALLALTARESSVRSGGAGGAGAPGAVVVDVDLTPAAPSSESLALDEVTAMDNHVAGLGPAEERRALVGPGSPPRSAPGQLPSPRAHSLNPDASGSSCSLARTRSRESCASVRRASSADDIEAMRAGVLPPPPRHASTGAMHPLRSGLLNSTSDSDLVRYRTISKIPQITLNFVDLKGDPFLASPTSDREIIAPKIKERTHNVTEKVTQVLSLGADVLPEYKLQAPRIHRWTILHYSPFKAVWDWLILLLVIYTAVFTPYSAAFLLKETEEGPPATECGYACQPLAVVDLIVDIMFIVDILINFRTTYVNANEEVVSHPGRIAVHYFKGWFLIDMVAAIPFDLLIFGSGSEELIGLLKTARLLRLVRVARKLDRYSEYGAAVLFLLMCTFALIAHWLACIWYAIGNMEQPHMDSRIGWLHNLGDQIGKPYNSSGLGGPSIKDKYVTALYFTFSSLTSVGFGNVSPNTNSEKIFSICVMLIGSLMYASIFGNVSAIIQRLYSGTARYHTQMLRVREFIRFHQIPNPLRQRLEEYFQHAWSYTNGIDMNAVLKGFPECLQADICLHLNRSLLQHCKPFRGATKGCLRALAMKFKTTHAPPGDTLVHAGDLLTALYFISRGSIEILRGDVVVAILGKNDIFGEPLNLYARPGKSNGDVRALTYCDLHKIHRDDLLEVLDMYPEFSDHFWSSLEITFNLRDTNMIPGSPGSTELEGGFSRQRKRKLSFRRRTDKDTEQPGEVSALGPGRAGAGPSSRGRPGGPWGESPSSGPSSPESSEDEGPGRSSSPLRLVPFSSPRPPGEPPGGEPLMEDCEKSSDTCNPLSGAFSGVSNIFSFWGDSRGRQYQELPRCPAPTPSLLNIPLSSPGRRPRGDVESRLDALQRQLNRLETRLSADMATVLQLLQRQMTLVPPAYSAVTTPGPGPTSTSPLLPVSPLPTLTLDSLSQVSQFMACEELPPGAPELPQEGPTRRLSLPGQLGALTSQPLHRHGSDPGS

Row | SMILES | hERG current change (%, negative = inhibition) at 1uM [%]
1 | Cc1cc(-c2nnc(CCC(=O)NC(Cc3ccccc3)c3ccccc3)o2)no1 (stereo not drawn) | 12.8
2 | Cc1ccc(NC(=O)Nc2nc3ccccc3s2)cc1NC(=O)Nc1nc2ccccc2s1 | 7.01
3 | CCCCCN(C(=O)CCC(=O)OCc1cccc(C(F)(F)F)c1)c1c(N)n(CCCC)c(=O)[nH]c1=O | 9.81
4 | CN(C)CCNc1nc(-c2ccco2)c2c(c1C#N)CC(C)(C)OC2 | -13.9
5 | CCOc1ccc(OCCSc2nnnn2-c2ccccc2)cc1 | 4.36
6 | CC(=O)Nc1ccc(S(=O)(=O)NCCC(=O)OC(C)C(=O)NC2(C#N)CCCCC2)cc1 (stereo not drawn) | 7.84
7 | Cc1cc(NC(=O)CC(C)(C)C)nc2c1c(=O)oc1ccccc12 | 12
8 | O=C(NCCc1ccccc1)C1CCCN(c2cnccn2)C1 (stereo not drawn) | 16.6
9 | O=C(CNC(=O)c1ccc(Br)o1)Nc1ccccc1 | 13.6
10 | CCC(C)NS(=O)(=O)c1ccc(OCC(=O)NCc2ccc(OC)cc2)cc1 (stereo not drawn) | 19.8
11 | O=C(Nc1ccc(N2CCOCC2)cc1)NC1CCCCC1 | 12
12 | CN(C)/C=N/c1cc(=O)[nH]c(=O)n1C | 11.1
13 | COc1cccc(OCC(O)CN2CCC(Cc3ccccc3)CC2)c1.Cl (stereo not drawn) | -55.6
14 | Cc1nc(NC(=S)NC(=O)COc2ccc(Cl)cc2)ccc1Br | 7.38
15 | COc1ccc(C(=O)N(NC(=O)Oc2ccccc2)C(C)(C)C)cc1 | 7.17
16 | CCSc1ncc(C#N)c(=O)[nH]1 | 19.7
17 | CC1CCc2sc(C(=O)NNC(=O)c3ccncc3)cc2C1 (stereo not drawn) | 14.8
18 | Cc1ncc([N+](=O)[O-])n1CCOC(=O)c1ccccc1 | 12.7
19 | CCCNC(=O)C12CCC(C)(C(=O)O1)C2(C)C (stereo not drawn) | 15.3
20 | CCCCOc1ccc(C(=O)N(Cc2ccccc2)C2CCS(=O)(=O)C2)cc1 (stereo not drawn) | 10.7
21 | Cc1ccc(/C=C2\C(=O)NC(=O)N(Cc3ccccc3Cl)C2=O)o1 | 11
22 | CC(C)(C)c1ccc(C(=O)N2CCC(C(=O)c3ccccc3)CC2)cc1 | 11.7
23 | COc1ccccc1CN(C)C(=O)C(NC(=O)Cc1cccc2ccccc12)C(C)C (stereo not drawn) | 13.3

Row | SMILES | hERG current change (%, negative = inhibition) at 1uM [%]
24 | O=C(COc1ccc(Br)cc1)N1CCc2ccccc21 | 15.8
25 | Cc1ccc(/C=N/NC(=O)Cc2cccn2C)s1 | 3.47
26 | Cc1ccc(C(C)C)cc1OCCCCN1CCCC1 | -6.15
27 | CCOc1ccc(NC(=S)N2CCC(C(N)=O)CC2)cc1 | 8.76
28 | O=C(NC(=O)c1ccccc1)Nc1cccc(S(=O)(=O)N2CCCCC2)c1 | -21.2
29 | Cc1nc2ccccc2n1Cc1ccccc1Br | 4.91
30 | C=CCn1c(SCC(=O)NCc2ccco2)nnc1C1CCCCC1 | 9.88
31 | NC(=S)N/N=C1\CC(c2ccc3c(c2)OCCCO3)Oc2ccc(F)cc21 (stereo not drawn) | 11.4
32 | COc1cc(C2C(C(=O)c3cc4ccccc4o3)=C(O)C(=O)N2c2cc(C)on2)cc(OC)c1OC (stereo not drawn) | 15.4
33 | O=C(Nc1cc(Cl)ccc1O)C1CC(c2ccccc2O)=NO1 (stereo not drawn) | 8.4
34 | Cc1ccc(-c2cc(C(=O)N/N=C/c3ccccc3O)n[nH]2)o1 | 12.8
35 | CN1C(=O)S/C(=C\c2ccc(-n3cncn3)cc2)C1=O | 6.08
36 | COC(=O)C1CCN(C(=O)c2ccc(NC(C)=O)cc2)CC1 | 2.37
37 | COCCNC(=O)C(c1cccc(OC)c1)N(C(=O)Cn1nnc2ccccc21)c1cccnc1 (stereo not drawn) | 13.5
38 | CCN(CC)S(=O)(=O)c1ccc(Cl)c(C(=O)Nc2nncs2)c1 | 15.1
39 | CN(C)S(=O)(=O)Nc1ccc(Br)cc1F | 10.1
40 | Cc1ccc(C(=O)Nc2cnc3sc(C)nn3c2=O)cc1 | 11.4
41 | Cc1c(CCC(=O)O)c(=O)oc2cc3occ(-c4ccc(F)cc4)c3cc12 | 9.48
42 | C=C(C)C(=O)Nc1cccc(C2=NOC3(C2)C[C@@H](C(N)=O)N(C(=O)c2ccc(OC)cc2)C3)c1 (stereo partly drawn) | 7.59
43 | CSc1nc(SCC(=O)NCc2ccco2)c2c3c(sc2n1)CN(C)CC3 | 4.1
44 | O=C(CCc1nnc(-c2ccccc2)o1)c1ccc(Cl)cc1 | 15.3
45 | C[C@H](CCC(=O)O)[C@H]1CC[C@H]2[C@@H]3CC[C@@H]4C[C@H](O)CC[C@]4(C)[C@H]3C[C@H](O)[C@]12C | 14.3
